In publication PMC3517901 one finds binding data, which are given here for 5 molecules.

Protein sequences, listed by entry. Tags and fused reporters are not part of them. Lines headed by an entry give the natural chain unless they say otherwise; changes in a name come on top. Chains listed by the source or under a name are the forms on record and can include a tag or linker. Residues count along the entry.
UniProt P49815: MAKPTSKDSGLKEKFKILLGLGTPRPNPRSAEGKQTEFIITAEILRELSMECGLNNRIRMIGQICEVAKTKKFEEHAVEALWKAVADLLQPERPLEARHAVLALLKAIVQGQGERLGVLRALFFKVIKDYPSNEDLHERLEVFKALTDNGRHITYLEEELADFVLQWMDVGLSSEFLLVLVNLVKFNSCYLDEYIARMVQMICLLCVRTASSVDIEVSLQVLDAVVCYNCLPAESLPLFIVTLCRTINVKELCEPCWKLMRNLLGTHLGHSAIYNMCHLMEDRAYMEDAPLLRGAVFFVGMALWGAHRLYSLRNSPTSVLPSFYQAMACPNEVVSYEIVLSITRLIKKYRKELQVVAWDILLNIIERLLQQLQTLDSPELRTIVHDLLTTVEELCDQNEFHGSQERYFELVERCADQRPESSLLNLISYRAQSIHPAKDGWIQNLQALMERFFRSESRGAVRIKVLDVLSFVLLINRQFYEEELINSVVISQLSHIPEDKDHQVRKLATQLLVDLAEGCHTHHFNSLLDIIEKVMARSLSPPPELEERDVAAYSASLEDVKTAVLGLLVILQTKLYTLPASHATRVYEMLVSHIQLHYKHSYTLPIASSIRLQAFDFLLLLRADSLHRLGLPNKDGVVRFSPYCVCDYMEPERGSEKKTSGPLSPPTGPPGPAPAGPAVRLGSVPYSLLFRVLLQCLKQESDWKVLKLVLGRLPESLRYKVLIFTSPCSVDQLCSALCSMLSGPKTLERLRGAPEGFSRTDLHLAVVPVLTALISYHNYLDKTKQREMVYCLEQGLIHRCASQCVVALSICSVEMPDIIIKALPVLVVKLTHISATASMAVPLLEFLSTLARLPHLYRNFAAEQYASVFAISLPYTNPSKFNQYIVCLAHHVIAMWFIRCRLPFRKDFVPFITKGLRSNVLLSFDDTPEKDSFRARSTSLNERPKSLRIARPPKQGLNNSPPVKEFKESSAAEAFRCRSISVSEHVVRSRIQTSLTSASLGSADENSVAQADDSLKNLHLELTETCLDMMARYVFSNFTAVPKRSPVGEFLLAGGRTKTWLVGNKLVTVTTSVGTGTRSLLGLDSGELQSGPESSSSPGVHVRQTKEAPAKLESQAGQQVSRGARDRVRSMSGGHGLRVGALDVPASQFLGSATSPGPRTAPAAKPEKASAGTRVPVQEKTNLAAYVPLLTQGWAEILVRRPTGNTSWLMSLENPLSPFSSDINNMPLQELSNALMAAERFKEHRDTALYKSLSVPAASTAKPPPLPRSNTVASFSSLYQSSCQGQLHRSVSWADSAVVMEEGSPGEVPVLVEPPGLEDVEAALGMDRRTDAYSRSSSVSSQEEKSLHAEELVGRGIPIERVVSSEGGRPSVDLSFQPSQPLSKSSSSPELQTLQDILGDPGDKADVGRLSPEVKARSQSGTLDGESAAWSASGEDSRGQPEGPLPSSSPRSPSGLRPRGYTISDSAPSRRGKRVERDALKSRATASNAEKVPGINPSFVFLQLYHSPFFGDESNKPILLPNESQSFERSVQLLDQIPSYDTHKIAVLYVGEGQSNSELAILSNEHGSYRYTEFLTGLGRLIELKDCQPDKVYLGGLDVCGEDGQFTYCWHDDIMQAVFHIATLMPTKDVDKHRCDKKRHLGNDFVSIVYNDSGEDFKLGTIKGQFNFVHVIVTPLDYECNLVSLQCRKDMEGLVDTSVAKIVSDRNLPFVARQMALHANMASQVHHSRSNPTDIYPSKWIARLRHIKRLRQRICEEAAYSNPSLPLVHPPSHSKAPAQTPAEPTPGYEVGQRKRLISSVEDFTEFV
TSC2 A1153V5 (TSC2 amino acids 1-1153): residues 1-1153 of P49815
TSC2 F904V5 (TSC2 amino acids 1-904): residues 1-904 of P49815
TSC2 A614V5 (TSC2 amino acids 1-614): residues 1-614 of P49815
TSC2 M1453V5 (TSC2 amino acids 1453-1784): residues 1476-1807 of P49815
V5-tagged full-length TSC2 (P49815, form named): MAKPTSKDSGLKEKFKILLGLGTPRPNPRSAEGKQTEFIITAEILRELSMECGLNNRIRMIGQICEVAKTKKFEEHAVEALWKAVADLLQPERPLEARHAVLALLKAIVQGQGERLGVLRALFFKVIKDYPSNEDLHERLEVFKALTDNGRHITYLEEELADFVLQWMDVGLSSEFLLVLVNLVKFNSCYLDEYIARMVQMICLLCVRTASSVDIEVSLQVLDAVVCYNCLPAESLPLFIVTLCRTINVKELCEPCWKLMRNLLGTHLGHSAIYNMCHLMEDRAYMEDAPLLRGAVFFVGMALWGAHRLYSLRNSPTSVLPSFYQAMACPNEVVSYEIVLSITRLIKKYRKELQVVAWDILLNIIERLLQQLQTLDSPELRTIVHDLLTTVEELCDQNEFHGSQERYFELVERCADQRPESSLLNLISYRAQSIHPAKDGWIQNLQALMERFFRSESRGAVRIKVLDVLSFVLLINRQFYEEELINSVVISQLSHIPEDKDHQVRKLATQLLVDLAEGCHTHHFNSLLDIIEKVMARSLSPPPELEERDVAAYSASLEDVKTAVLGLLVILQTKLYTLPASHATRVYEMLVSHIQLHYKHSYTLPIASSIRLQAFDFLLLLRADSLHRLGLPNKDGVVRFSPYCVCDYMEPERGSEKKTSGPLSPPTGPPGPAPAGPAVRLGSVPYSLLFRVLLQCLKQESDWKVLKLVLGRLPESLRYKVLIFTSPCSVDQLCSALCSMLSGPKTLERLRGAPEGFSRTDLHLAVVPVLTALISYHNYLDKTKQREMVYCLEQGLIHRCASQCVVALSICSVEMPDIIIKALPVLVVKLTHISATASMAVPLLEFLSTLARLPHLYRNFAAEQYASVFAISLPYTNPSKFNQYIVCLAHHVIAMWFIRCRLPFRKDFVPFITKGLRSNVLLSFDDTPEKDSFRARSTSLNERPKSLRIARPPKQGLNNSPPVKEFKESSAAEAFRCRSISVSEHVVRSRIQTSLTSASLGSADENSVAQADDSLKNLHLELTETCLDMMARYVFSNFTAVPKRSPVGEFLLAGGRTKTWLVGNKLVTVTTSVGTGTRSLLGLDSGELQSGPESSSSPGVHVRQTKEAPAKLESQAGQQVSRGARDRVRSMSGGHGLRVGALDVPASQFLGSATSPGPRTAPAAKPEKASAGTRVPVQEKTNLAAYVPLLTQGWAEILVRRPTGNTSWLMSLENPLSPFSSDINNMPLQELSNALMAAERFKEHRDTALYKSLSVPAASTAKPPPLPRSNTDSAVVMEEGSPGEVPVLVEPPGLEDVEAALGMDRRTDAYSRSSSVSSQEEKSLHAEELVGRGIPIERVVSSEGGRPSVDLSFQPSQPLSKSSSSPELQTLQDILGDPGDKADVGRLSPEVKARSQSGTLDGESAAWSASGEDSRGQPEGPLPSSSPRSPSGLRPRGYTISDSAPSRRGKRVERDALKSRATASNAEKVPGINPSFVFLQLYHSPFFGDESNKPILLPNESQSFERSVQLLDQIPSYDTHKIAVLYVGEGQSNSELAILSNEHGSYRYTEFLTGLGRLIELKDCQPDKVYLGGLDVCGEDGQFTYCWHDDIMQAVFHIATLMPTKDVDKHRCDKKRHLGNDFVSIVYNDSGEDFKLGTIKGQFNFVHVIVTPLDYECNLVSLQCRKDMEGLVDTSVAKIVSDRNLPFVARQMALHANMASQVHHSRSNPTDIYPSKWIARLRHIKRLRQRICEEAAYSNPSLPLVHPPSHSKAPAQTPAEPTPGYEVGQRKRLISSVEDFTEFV
TSC2 M1028V5 (TSC2 amino acids 1028-1784) (P49815, form named): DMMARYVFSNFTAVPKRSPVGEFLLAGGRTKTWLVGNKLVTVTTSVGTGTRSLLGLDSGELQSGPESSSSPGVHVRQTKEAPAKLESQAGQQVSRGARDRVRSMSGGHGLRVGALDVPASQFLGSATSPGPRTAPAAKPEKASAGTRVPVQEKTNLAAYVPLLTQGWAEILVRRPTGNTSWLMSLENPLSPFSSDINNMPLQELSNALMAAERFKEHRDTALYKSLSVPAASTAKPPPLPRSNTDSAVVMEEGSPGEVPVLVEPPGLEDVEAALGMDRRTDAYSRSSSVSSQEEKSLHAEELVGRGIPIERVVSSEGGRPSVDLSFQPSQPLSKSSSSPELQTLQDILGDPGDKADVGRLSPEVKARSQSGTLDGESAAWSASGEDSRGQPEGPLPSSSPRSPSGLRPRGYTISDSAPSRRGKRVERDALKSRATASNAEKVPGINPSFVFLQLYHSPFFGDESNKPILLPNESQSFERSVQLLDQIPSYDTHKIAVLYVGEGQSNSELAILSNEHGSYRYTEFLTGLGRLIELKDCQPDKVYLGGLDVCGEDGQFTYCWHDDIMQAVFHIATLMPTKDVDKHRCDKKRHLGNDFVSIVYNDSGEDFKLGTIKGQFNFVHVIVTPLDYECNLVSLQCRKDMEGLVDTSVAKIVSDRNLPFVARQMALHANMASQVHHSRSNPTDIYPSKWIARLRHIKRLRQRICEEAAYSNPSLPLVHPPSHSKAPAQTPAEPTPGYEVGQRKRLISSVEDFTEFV

Experiment [1] concerns the target N-terminal Xpress epitope tagged TSC2 (UniProt P49815). Put plainly: co-IP; HEK 293T cells transfected with tagged constructs, with or without co-expressed TSC1; lysis in 50 mM HEPES pH 7.5, 10% glycerol, 1 mM DTT, 100 mM NaCl, 0.1% Triton X100; anti-V5 or anti-myc affinity beads, or anti-Xpress / anti-TSC2 with Protein A/G beads, 4°C; immunoblot. A general note: Immunoblotting shows a protein as a band on a membrane.

Experiment [2] has as its target V5-tagged full-length TSC2 (UniProt P49815). Described as above.
For experiment [3], the target named is TSC2 A1153V5 (TSC2 amino acids 1-1153) (UniProt P49815). Described as above.
Experiment [4] concerns the target TSC2 A614V5 (TSC2 amino acids 1-614) (UniProt P49815). The description is as above.
The target in experiment [5] is TSC2 F904V5 (TSC2 amino acids 1-904) (UniProt P49815). The description is as above.
In experiment [6] the target is TSC2 M1028V5 (TSC2 amino acids 1028-1784) (UniProt P49815). The description is as above.
The target in experiment [7] is TSC2 M1453V5 (TSC2 amino acids 1453-1784) (UniProt P49815). The description is as above.
Experiment [8] concerns the target T1, TSC1-TEV-myc, released from anti-myc beads by AcTEV, Q92574.
T1 chain: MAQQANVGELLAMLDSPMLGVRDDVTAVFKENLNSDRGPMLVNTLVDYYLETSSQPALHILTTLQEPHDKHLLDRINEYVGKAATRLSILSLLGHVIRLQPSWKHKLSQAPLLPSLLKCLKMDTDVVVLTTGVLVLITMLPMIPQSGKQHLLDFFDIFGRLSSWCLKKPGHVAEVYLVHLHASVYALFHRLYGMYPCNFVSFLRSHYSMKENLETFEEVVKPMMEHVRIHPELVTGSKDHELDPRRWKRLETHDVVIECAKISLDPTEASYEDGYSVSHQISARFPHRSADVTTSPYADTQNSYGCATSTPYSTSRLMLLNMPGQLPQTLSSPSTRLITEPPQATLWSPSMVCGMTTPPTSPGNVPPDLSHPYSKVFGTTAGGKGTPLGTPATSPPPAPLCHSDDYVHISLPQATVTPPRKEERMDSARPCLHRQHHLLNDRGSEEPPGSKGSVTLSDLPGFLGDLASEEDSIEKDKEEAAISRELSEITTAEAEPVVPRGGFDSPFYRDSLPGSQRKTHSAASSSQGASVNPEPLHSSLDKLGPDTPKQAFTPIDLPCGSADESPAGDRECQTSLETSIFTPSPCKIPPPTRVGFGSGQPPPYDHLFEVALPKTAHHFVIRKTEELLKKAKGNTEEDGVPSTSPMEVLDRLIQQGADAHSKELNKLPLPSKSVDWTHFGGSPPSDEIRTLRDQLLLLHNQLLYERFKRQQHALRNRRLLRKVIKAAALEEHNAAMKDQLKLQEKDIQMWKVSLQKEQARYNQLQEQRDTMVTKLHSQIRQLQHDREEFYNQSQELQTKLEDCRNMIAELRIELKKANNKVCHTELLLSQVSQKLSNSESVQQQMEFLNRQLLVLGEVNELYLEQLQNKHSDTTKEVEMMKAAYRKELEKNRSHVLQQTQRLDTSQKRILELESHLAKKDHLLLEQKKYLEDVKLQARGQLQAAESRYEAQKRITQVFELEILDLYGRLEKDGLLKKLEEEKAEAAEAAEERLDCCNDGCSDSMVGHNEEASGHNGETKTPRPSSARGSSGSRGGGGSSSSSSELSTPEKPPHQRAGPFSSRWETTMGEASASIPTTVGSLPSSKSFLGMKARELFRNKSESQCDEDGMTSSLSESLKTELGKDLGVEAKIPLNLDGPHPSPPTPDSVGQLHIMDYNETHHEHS
Description: SEC; TSC1-TSC2 complex from cotransfected HEK 293T cells, purified on anti-myc affinity beads, released by AcTEV overnight at 4°C, Coomassie gel and Superose 6 gel filtration, fractions immunoblotted; both purified. To be noted: remark: other sources report otherwise. A general note: In gel filtration, larger molecules generally elute earlier.

In experiment [9] the target is T2, TSC1 tagged with a C-terminal V5 epitope, Q92574.
T2 chain: T1 chain
Description: co-IP; HEK 293T cells transfected with tagged constructs, with or without co-expressed TSC1; lysis in 50 mM HEPES pH 7.5, 10% glycerol, 1 mM DTT, 100 mM NaCl, 0.1% Triton X100; anti-V5 or anti-myc affinity beads, or anti-Xpress / anti-TSC2 with Protein A/G beads, 4°C; immunoblot. To be noted: remark: other sources report otherwise.

In experiment [10] the target is T3, TSC1 tagged with a C-terminal myc epitope, Q92574.
T3 chain: T1 chain
The experiment is described as above. To be noted: remark: other sources report otherwise.

These are yes or no findings as the source states them, for the method shown. For some assays here: In cells and extracts the contact can be indirect. Some binding calls cover weakened binding; strength is not graded here. Where a sequence is shown, tags or fusion partners need not be part of it.

B1: TSC1, co-expressed with the tagged TSC2 isoforms (Figure 2) (protein, UniProt Q92574 1-1164)
chain: T1 chain
On to B1, for which the binding result in [1] and in experiment [2] was “binds” in each case.

B2: TSC1 tagged with a C-terminal myc epitope (protein, UniProt Q92574 1-1164)
chain: T1 chain
For B2, the binding result is “binds” in experiment [3]; “binds” in experiment [4]; “binds” in experiment [5]; “no binding” in experiment [6]; “no binding” in experiment [7]; “binds” in experiment [2].

B3: TSC1-TEV-myc, released from anti-myc beads by AcTEV, Q92574 1-1164 (protein)
chain: T1 chain
As for B3, the binding entry in experiment [8] is “binds”.

B4: TSC1 tagged with a C-terminal myc epitope, Q92574 1-1164 (protein)
chain: T1 chain
As to B4, the binding result in experiment [9] is recorded as “binds”.

B5: TSC1 tagged with a C-terminal V5 epitope, Q92574 1-1164 (protein)
chain: T1 chain
In the case of B5, the binding entry in experiment [10] is on record as “binds”.
